Several values for one entry are separate records, joined by “and”; a condition that tells them apart may be missing. Equal entries are not always repeated. Screen size: about 48,000 compounds; about 1,200 (2.5%) were called active. Not shown: some 2% with an inconclusive outcome.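 The calls were made as follows: active = activation of at least 60% and not above a set upper limit (about 1 call in 100 departs from these limits); inconclusive = activation of 40% to 60%, or above that upper limit; inactive = activation under 40%.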 This is one part of the list.

Chain of UniProt O75388 (O75388 whole entry, looked up, the tested form may be a part): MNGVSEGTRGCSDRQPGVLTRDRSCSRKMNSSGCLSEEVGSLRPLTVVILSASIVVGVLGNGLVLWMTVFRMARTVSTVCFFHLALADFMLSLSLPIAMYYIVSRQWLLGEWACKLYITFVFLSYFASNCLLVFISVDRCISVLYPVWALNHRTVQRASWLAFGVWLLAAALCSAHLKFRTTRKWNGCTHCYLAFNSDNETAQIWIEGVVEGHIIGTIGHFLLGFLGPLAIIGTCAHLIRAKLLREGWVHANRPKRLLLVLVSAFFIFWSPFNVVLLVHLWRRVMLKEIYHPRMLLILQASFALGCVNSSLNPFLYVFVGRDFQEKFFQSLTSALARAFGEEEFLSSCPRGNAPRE

This assay deals with Probable G-protein coupled receptor 32 (Homo sapiens) (UniProt O75388). The assay is described as follows: qHTS for Agonists of Human Resolvin D1 Receptor DRV1. Also: 0% is about no effect. The following applies: CHO-K1 GPR32 beta-arrestin PathHunter luminescence, 90 min; at 76.9 µM; active compounds read high; zero percent set by DMSO-only wells. A digest of the protocol:
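PathHunter enzyme-fragment complementation, CHO-K1 GPR32 stable line; 2,500 cells/well, overnight attach; cpd 90 min 37 °C 5% CO2; detection reagent 1 h RT; chemiluminescence. DMSO = EC0.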
Background: Quantitative high-throughput screening tests each substance at several concentrations.
For `CCOc1ccc(-c2cccc(NS(=O)(=O)c3ccc(C)s3)c2)nn1`, the activation was inactive: -4.41%. For `CCOC(=O)C1CCN(C(=O)c2cc3sc(C)cc3n2C)CC1` the value was inactive: -4.39%; for `CCCCN(CC)C(=O)CSc1nc2n[nH]c(C)c2c(=N)n1-c1ccc(CC)cc1`, inactive: -26%.

Take `COCCCn1c(=O)c2sccc2n2c(CCCC(=O)NCc3cccc(OC)c3)nnc12`: the activation was inactive: -11.2%. For `CN(C)CC[C@@H](c1ccc(Cl)cc1)c1ccccn1` the value was inactive: 0.197% and inactive: 6.15%; for `Cc1ccc(N(C)C(=O)c2sc3nc4n(c(=O)c3c2C)CCCC4)cc1C`, inactive: -12.1%; for `COc1ccc(NC(=O)CSc2ncc3c(n2)-c2ccccc2N(Cc2ccc(C)cc2)S3(=O)=O)cc1Cl`, inactive: 15.4%. Turning to `CCOC(=O)C1CCC(CN(Cc2ccc(Cl)cc2)S(=O)(=O)c2cccc(Cl)c2C)CC1` (stereo not drawn), the activation was inactive: 3.73%.

Regarding `CCCCOc1ccc(C(=O)Nc2ccc3c(c2)CCCN3C(=O)c2cccs2)cc1`, the activation was inactive: 4.88%. Take `Cc1nc2nc(NC(=O)c3ccc(C(C)(C)C)cc3)[nH]n2c(=O)c1C`: the activation is inactive: 15.7%. Take `CCOC(=O)C1CCN(C(=O)c2ccccc2NC(=O)c2nsc3ccccc23)CC1`: the activation was inactive: -20.3%. For the compound `CCOc1ccc(NS(=O)(=O)c2c(C)nc3sc(C)c(C)n3c2=O)cc1`, the activation was inactive: 12.7%. Consider `CCN1C(=O)c2ccccc2S(=O)(=O)c2ccc(C(=O)NCc3ccccc3)cc21`, for which the activation is inactive: -11.7%. For `O=C(CSc1ncc(-c2ccccc2)[nH]1)Nc1ccccc1`, the activation was inactive: -15.5%. Then `NC(=O)C1CCN(S(=O)(=O)c2cc3c(cc2Cl)NC(=O)CO3)CC1`, with inactive: 6.43%; and `O=C(CCC1N=C2c3ccccc3N=C(SCC(=O)Nc3cccc(Cl)c3)N2C1=O)NCc1ccco1` (stereo not drawn), with inactive: -23.5%; and `CCc1ccc(-c2nc(CS(=O)CC(=O)NCCc3ccc(C)cc3)c(C)o2)cc1` (stereo not drawn), with inactive: 3.22%. For `CCOc1ccc(N(C)C(=O)c2oc(=O)c3ccccc3c2-c2ccccc2)cc1` the value was inactive: -27.4%; for `CC(C)c1cnc2c(c1SCC(=O)NC(C)(C)C)c(=O)n(C)c(=O)n2C`, inactive: -19.9%; for `Cc1ccc(N(CC(=O)N2CCN(c3cc(C)ccc3C)CC2)S(=O)(=O)c2c(C)nn(C)c2C)cc1`, inactive: 5.79%. For `O=C(O)CC1c2ccccc2CCN1C(=O)Nc1cc(Cl)ccc1Cl` (stereo not drawn) the value was inactive: -20.2%; for `CCn1cc2c(n1)-c1c(oc(C(=O)Nc3ccc(Br)cc3F)c1C)CC2`, inactive: -5.22%; for `CCOC(=O)c1noc2nc(C)n(CC(=O)Nc3cccc(OC)c3)c(=O)c12`, inactive: -6.25%.

Consider `Cc1ccc(CN(C(=O)c2ccc(OCC(C)C)cc2)c2ccccn2)o1`, for which the activation was inactive: -8.32%. For `COC(=O)COc1ccc(-c2nnc(Nc3ccc(O)cc3)c3ccccc23)cc1`, the activation is inactive: 18.8%. For `Cc1cc(Cl)ccc1-n1c(CCC(=O)O)ccc1-c1cccs1` the value was inactive: -0.77%; for `CCCCC1CCC(C(=O)N2CC(=O)Nc3ccc(Br)cc3C2c2ccc(F)cc2)CC1` (stereo not drawn), inactive: -22.6%; for `Cc1cccc2c1-c1sc(C(=O)Nc3ccc(F)cc3F)cc1CO2`, inactive: 38.2%. For `CCc1c(C)c2ccc(O)c(CN3CCN(c4cc(Cl)ccc4C)CC3)c2oc1=O` the value was inactive: 20.9%; for `CCc1ccc(S(=O)(=O)c2nnn3c2nc(N2CCN(c4ccccc4)CC2)c2cc(Cl)ccc23)cc1`, inactive: 2.09%. Then `CCC(=O)OCc1cc(=O)n2nc(C3CC3)sc2n1`, with inactive: 1.5%; and `Cc1ccc(NC(=O)CN2C(=O)COc3ccc(S(=O)(=O)N4CCCCCC4)cc32)c(C)c1`, with inactive: -18.4%. On to `Cc1ccc(CNC(=O)C(=O)Nc2c3c(nn2-c2ccc(F)cc2)CSC3)cc1`, for which the activation is inactive: -16.1%. For `Cc1ccc(CNC(=O)c2ccc(N3CCCC3)c(NC(=O)Nc3ccc(C)cc3)c2)cc1` the value was inactive: -15.7%; for `CCN(CC)C(=O)Cn1c(=O)n(CCCCCC(=O)NCc2ccc3c(c2)OCO3)c(=O)c2sccc21`, inactive: -11.9%; for `O=c1c2sc3ccccc3c2n(Cc2cccc(F)c2)c(=O)n1CCc1ccccc1`, inactive: -6.04%. As to `CN(C(=O)Cn1nc(Cc2cccnc2)c2ccccc2c1=O)c1cccc(C(F)(F)F)c1`, the activation is inactive: -30.2%.

For the compound `CCCc1cc(=O)oc2c3c(ccc12)OCN(Cc1ccccc1OC)C3`, the activation is inactive: -4.65%. Then `Fc1ccc(CN2CCc3nc(N4CCN(c5ccccc5F)CC4)ncc3C2)c(F)c1`, with inactive: -20.3%; and `Cc1ccc(-n2nc(C)c3c(C)c(CCC(=O)NC(C)c4ccccc4)c(C)nc32)cc1` (stereo not drawn), with inactive: -0.996%.

As to `Cc1ccc(NC(=O)Cn2c(=O)n(-c3ccc(C)cc3)c(=O)c3c2cnn3C)cc1`, the activation was inactive: -17.1%. For `Cc1ccc(Cc2nc3ccccc3nc2SCC(=O)N2CCC(C)CC2)cc1` the value was inactive: -11.4%; for `O=C(NCCc1ccc(Cl)cc1)C1CCN(Cc2cc3ccccc3n2Cc2ccccc2)CC1`, inactive: -11.2%. For `COc1ccc(CCNC(=O)CCc2cn(Cc3ccccc3Cl)c3ccccc23)c(OC)c1` the value was inactive: -21.1%. Then `Cc1ccc(CNC(=O)c2ccc(CSc3nc4ccncc4n3Cc3ccc(C)cc3)cc2)cc1`, with inactive: 8.32%; and `COc1cccc(C(=O)Nc2ccc3nc(SCC(=O)N(C)c4ccccc4)sc3c2)c1`, with inactive: -1.64%; and `CCOc1ccc(NC(=O)c2c(C)oc3nc(C)nc(N4CCCC4)c23)cc1`, with inactive: -21.7%. For `COc1ccccc1CCNC(=O)c1cccn1-c1nnc(N2CCCC2)s1`, the activation was inactive: 11.6%. For `Cc1cc(C)c(NC(=O)Cn2c(=O)oc3cc(S(=O)(=O)N4CCCCCC4)ccc32)c(C)c1` the value was inactive: 9.39%; for `CCOc1ccc(-c2cc(NC(=O)c3ccccc3)c(C(=O)OC)s2)cc1`, inactive: 6.45%; for `Cc1ccc(Cl)cc1N1CCN(c2ncnc3c2nc2n3CCCC2)CC1`, inactive: -6.15%. For `CCCN(C(=O)c1cc(S(=O)(=O)N2CCc3ccccc32)cn1C)c1ccc(OCC)cc1` the value was inactive: -22.8%; for `COc1ccc(CNC(=O)Cn2c(=O)oc3cc(S(=O)(=O)NCc4ccccc4)ccc32)cc1`, inactive: 25.3%. Then `CCOc1ccc(C2C(C(=O)Nc3ccccc3)=C(C)Nc3nc(-c4ccccc4Cl)nn32)cc1OC` (stereo not drawn), with inactive: -2.57%; and `Cc1ccccc1NC(=O)C(=O)NCC(c1ccc2c(c1)OCO2)N1CCN(c2ccccc2)CC1` (stereo not drawn), with inactive: -13.6%. Take `COc1ccc(NC(=O)c2cc3c(-c4ccccc4F)nn(C)c3s2)c(OC)c1`: the activation was inactive: 8.24%.

As for `Cc1ccccc1NC(=O)Cn1cc(S(=O)(=O)c2ccccc2)c(=O)c2ccccc21`, the activation is inactive: -3.44%. As for `CCOc1ccc(Nc2cc(C)nc3nncn23)cc1`, the activation is inactive: -12.4%. Then `O=C(Cn1nc(C(F)(F)F)c2c1CCCC2)Nc1cccc(Cl)c1`, with inactive: -5.12%; and `CCCn1c2ccccc2c2cnn(CC(=O)NCCCN3CCCCC3CC)c(=O)c21` (stereo not drawn), with inactive: -19.9%. For `CCN1CCN(Cc2c(O)ccc3oc(C)c(C(=O)Nc4cccc(Cl)c4C)c23)CC1` the value was inactive: -8.85%. For `FC(F)(F)c1cccc(N2CCN(c3ncnc4c3nc3n4CCCC3)CC2)c1` the value was inactive: 17.9%; for `CCC(C)NC(=O)c1cc(Sc2cccc(Cl)c2)nc2ccccc12` (stereo not drawn), inactive: 20.3%; for `CN1CCN(CCC(=O)N2c3ccccc3Sc3ccc(C(F)(F)F)cc32)CC1`, inactive: 26.2%. Turning to `CC1(C)S[C@@H]2[C@H](NC(=O)C(c3ccccc3)S(=O)(=O)O)C(=O)N2[C@H]1C(=O)O` (stereo partly drawn), the activation is inactive: -13.1%.

For `CC(C)N(Cc1ccccc1)C(=O)c1nc(-c2ccc(Cl)cc2)n2c1CCCCC2`, the activation was inactive: 38.7%. For `CCc1ccc(OCC2c3cc(OC)c(OC)cc3CCN2C(=O)c2ccc(S(=O)(=O)N3CCCC3)cc2)cc1` (stereo not drawn) the value was inactive: -7.53%; for `CCOC(=O)c1cnc2c(ccc3ccccc32)c1Nc1ccc(N(C)C)cc1`, inactive: -32.3%; for `CCn1cc(C(=O)NCCCOC(C)C)c(=O)c2cc(S(=O)(=O)N3CCOCC3)ccc21`, inactive: -6.87%.

On to `O=C(Cn1ccc2cc(S(=O)(=O)N3CCCCCC3)ccc21)NCc1ccccc1Cl`, for which the activation is inactive: 11%. For `COc1cccc(NC(=O)c2c(C)nn(-c3cccc(C)c3)c2-n2cccc2)c1` the value was inactive: -16.1%; for `COc1cccc(CN2C(=O)CN(C3CCCCC3)C(=O)C2c2ccc(OC(C)C)c(OC)c2)c1` (stereo not drawn), inactive: -24.6%. On to `Cc1cc(NC(=O)N2CCC(CN3CCCCCC3)CC2)ccc1Br`, for which the activation is inactive: -19.7%. Then `COC(=O)c1ccc2c(=O)n(CCCCCC(=O)NCCc3ccccc3)c(=O)[nH]c2c1`, with inactive: -18.1%.

For `O=S(=O)(c1ccc(Cl)cc1)c1nnn2c1nc(NC1CCCC1)c1sccc12`, the activation was inactive: -11.5%. Then `CCC1Sc2ccccc2N(CC(=O)NCc2ccc(C)cc2)C1=O` (stereo not drawn), with inactive: -9.07%; and `CN(CCOc1ccc(CC2SC(=O)NC2=O)cc1)c1ccccn1` (stereo not drawn), with inactive: 10.4%. In the case of `O=C(CSc1nc2c([nH]c3ccccc32)c(=O)n1-c1ccccc1)Nc1ccc2c(c1)OCO2`, the activation is inactive: -52%. Then `Nc1c(C(=O)Nc2ccccc2Br)sc2nc(-c3cccs3)ccc12`, with inactive: -10.3%. Then `COc1ccc(-c2nc(Cn3c(=O)cc(C)c4c(C)nn(-c5ccccc5)c43)c(C)o2)cc1OC`, with inactive: -7.66%; and `COc1ccc(C)cc1-n1c(-c2ccc(Cl)cc2)cc2c1CC(C)(C)CC2=O`, with inactive: -1.79%. For `Cc1noc2ncnc(N3CCN(c4cccc(C(F)(F)F)c4)CC3)c12` the value was inactive: 9.35%. `Cc1cccn2c(=O)c3cc(C(=O)NCC(C)C)sc3nc12`: the activation is inactive: 3.18%.

(Values after PubChem BioAssay AID1346428 (National Center for Advancing Translational Sciences (NCATS), 2018).)
